Screen size: about 39,000 compounds; about 220 (0.56%) showed activity. The list shows a part of the results.
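Also: static incubation at 37 °C against the wild-type strain, values averaged over two biological replicates.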

In this test the test system is Escherichia coli K-12 BW25113. Description: relative growth (OD600 normalised to plate interquartile mean) (fraction); higher = less growth inhibition, active = 0.2 or less. Conditions: 50 µM; LB; incubation time: overnight (16-24 h).
For `C[C@@H]1CN([C@@H](C)CO)C(=O)c2c(c3ccccc3n2C)-c2ccccc2CO[C@H]1CN(C)C(=O)Nc1cccc(F)c1`, the relative growth was inactive: 1.03.

Take `C[C@H](CO)N1C[C@H](C)[C@H](CN(C)C(=O)Nc2ccccc2)OCCCC[C@H](C)Oc2ccc(NC(=O)Cc3ccccc3)cc2C1=O`: the relative growth was inactive: 1.01.

On to `COc1ccc(CN(C)C[C@@H]2OCCCC[C@@H](C)Oc3ccc(NC(=O)C4CCCCC4)cc3C(=O)N([C@H](C)CO)C[C@@H]2C)cc1`, for which the relative growth is inactive: 1.01.

`CN(C)CCCN1c2ccccc2Sc2ccc(Cl)cc21.Cl`: the relative growth was inactive: 0.769.

Regarding `C[C@@H]1CCCCO[C@@H](CN(C)Cc2ccc(C(=O)Nc3ccccc3N)cc2)[C@@H](C)CN([C@H](C)CO)C(=O)c2cc(NC(=O)Nc3ccc4c(c3)OCO4)ccc2O1`, the relative growth was inactive: 1.02.

Take `COc1ccc(NC(=O)Nc2ccc3c(c2)C(=O)N([C@@H](C)CO)C[C@@H](C)[C@H](CN(C)Cc2ccc(C(=O)O)cc2)OCCCC[C@H](C)O3)cc1`: the relative growth is inactive: 1.01.

On to `C[C@H](NC(=O)C[C@H]1C=C[C@@H](NC(=O)CN2CCOCC2)[C@H](CO)O1)c1ccccc1`, for which the relative growth is inactive: 1.

For the compound `Cc1ccccc1S(=O)(=O)N1C[C@H](O)COC[C@@H]2O[C@@H](CC(=O)N3CCOCC3)CC[C@H]21`, the relative growth was inactive: 1.02.

Consider `C[C@@H]1CN([C@@H](C)CO)C(=O)Cc2cc(NC(=O)Nc3ccc(F)cc3)ccc2O[C@H]1CN(C)C(=O)Nc1ccc(C(F)(F)F)cc1`, for which the relative growth is inactive: 1.

Turning to `C[C@@H]1CN([C@H](C)CO)C(=O)Cc2cc(NC(=O)NC3CCCCC3)ccc2O[C@@H]1CN(C)Cc1ccc(C(F)(F)F)cc1`, the relative growth was inactive: 0.982.

Regarding `O=C(C[C@@H]1CC[C@@H](NC(=O)c2cccnc2)[C@@H](CO)O1)NCCN1CCCCC1`, the relative growth was inactive: 1.01.

For the compound `O=C(C=Cc1ccc(O)cc1)c1ccc(O)cc1O`, the relative growth is inactive: 1.02.

As for `CS(=O)(=O)N1CCCn2c(nc(CNC(=O)CC3CC3)cc2=O)C1`, the relative growth was inactive: 1.

Take `C[C@@H]1CN([C@@H](C)CO)C(=O)c2cc(NC(=O)Nc3cccc4ccccc34)ccc2O[C@@H](C)CCCCO[C@H]1CN(C)C`: the relative growth was inactive: 1.01.

As for `COC(=O)c1sccc1NC(=O)Cn1cnc2c1c(=O)n(C)c(=O)n2C`, the relative growth was inactive: 1.02.

Take `CCc1c(C(=O)OC)nnc2cc(C)nn12`: the relative growth is inactive: 1.02.

Regarding `C=C(C)[C@H]1CC=C(C)CC1`, the relative growth is inactive: 1.01.

For the compound `C#Cc1nccnc1OC`, the relative growth is inactive: 0.913.

Regarding `C[C@@H]1CN([C@@H](C)CO)C(=O)c2cc(NC(=O)Nc3ccc(F)cc3)ccc2O[C@@H](C)CCCCO[C@H]1CN(C)C(=O)c1ccccc1`, the relative growth is inactive: 0.99.

Take `COCC(=O)N1[C@@H]2CC[C@H]1COC2`: the relative growth was inactive: 1.02.

`C[C@H]1CCCCO[C@H](CN(C)S(=O)(=O)c2cn(C)cn2)[C@@H](C)CN([C@@H](C)CO)C(=O)c2cc(NS(=O)(=O)c3ccccc3)ccc2O1`: the relative growth was inactive: 1.03.

With `CC1(C)CC2C(=O)CCC3OC3(C)CCC21` (stereo not drawn), the relative growth is inactive: 0.946.

For `CC(=O)N1[C@H](CO)[C@H](c2ccccc2)[C@H]1CNC(=O)CN1CCOCC1`, the relative growth was inactive: 1.

Consider `COc1ccccc1CN1C(=O)c2ccccc2[C@@]2(Cc3ccccc3N(C(C)C)C2=O)[C@@H]1c1ccc(CO)cc1`, for which the relative growth was inactive: 1.03.

In the case of `C[C@H](CO)N1C[C@H](C)[C@H](CN(C)Cc2ccc3c(c2)OCO3)Oc2ccc(NS(C)(=O)=O)cc2C1=O`, the relative growth was inactive: 0.982.

With `COc1ccc(S(=O)(=O)Nc2ccc3c(c2)C(=O)N([C@H](C)CO)C[C@@H](C)[C@@H](CN(C)S(=O)(=O)c2ccccc2)O3)cc1`, the relative growth is inactive: 1.01.

As for `O=C(c1cn(Cc2cncn2Cc2ccc(Br)cc2)cc1-c1cccc2ccccc12)N1CCOCC1`, the relative growth is inactive: 1.04.

As to `CCOC[C@]12Cc3cnn(-c4ccc(F)cc4)c3C=C1CCN(S(=O)(=O)c1ccc(C(F)(F)F)cc1)C2`, the relative growth was inactive: 0.977.

For the compound `C[C@@H]1CN([C@@H](C)CO)C(=O)c2cc(NC(=O)CCN3CCOCC3)ccc2O[C@H]1CN(C)S(=O)(=O)c1cn(C)cn1`, the relative growth was inactive: 0.995.

On to `Cc1noc(C)c1NC(=O)N(C)C[C@@H]1OCCCC[C@H](C)Oc2ccc(NS(=O)(=O)c3ccccc3)cc2C(=O)N([C@@H](C)CO)C[C@H]1C`, for which the relative growth was inactive: 1.01.

Take `NC[C@H]1CCN(c2ccc(Oc3ccccc3)cc2)C1`: the relative growth was inactive: 0.669.

As to `Cc1noc(C)c1S(=O)(=O)N(C)C[C@H]1OCc2cn(nn2)CCCC(=O)N([C@@H](C)CO)C[C@@H]1C`, the relative growth is inactive: 1.

`C[C@H](CO)N1C[C@H](C)[C@@H](CN(C)Cc2ccc(C(F)(F)F)cc2)OCCCC[C@H](C)Oc2ccc(NS(=O)(=O)c3cn(C)cn3)cc2C1=O`: the relative growth was inactive: 0.997.

Consider `O=C(Nc1ccccc1)c1ccccc1O`, for which the relative growth is inactive: 0.534.

Turning to `COc1ccc(S(=O)(=O)Nc2ccc3c(c2)OC[C@@H](C)N(C)C[C@@H](C)[C@H](OC)CN(C)C3=O)cc1`, the relative growth was inactive: 1.03.

Regarding `C[C@H](CO)N1C[C@H](C)[C@H](CN(C)C(=O)C2CCOCC2)Oc2ncc(C#CC3(O)CCCC3)cc2C1=O`, the relative growth was inactive: 0.996.

On to `C[C@@H]1CCCCO[C@@H](CN(C)C(=O)Cc2ccccc2)[C@H](C)CN([C@H](C)CO)C(=O)c2cc(NC(=O)C3CCCCC3)ccc2O1`, for which the relative growth is inactive: 0.99.

Turning to `COc1ccc(C#Cc2cnc3c(c2)C(=O)N([C@@H](C)CO)C[C@H](C)[C@@H](CN(C)C(=O)CC2CC2)O3)cc1`, the relative growth was inactive: 1.02.

For the compound `CC(C)c1nc(/N=C/N(C)C)nc(=O)n1C`, the relative growth was inactive: 1.

Turning to `C[C@H]1CN([C@@H](C)CO)C(=O)c2c(c3ccccc3n2C)-c2ccccc2CO[C@H]1CN(C)C(=O)Nc1ccccc1C(F)(F)F`, the relative growth was inactive: 0.997.

As for `C[C@@H]1CN([C@H](C)CO)C(=O)c2cccc(NS(=O)(=O)c3cn(C)cn3)c2O[C@H]1CN(C)C(=O)Nc1ccc2c(c1)OCO2`, the relative growth was inactive: 0.986.

In the case of `CC(C)NC(=O)N(C)C[C@H]1Oc2ccc(NS(=O)(=O)c3cccs3)cc2C(=O)N([C@@H](C)CO)C[C@@H]1C`, the relative growth was inactive: 0.99.

On to `COc1ccc(NC(=O)N(C)C[C@@H]2Oc3ccc(NC(=O)C4CC4)cc3C(=O)N([C@@H](C)CO)C[C@@H]2C)cc1`, for which the relative growth is inactive: 0.999.
